In the RNAGym collection of RNA variant scans (doi:10.1073/pnas.2313332121):
This sample is rich in variants without activity.

B1: TPR 5TU (parent)
chain: GGAUCUUCUCGAUCUAACAAAAAAGACAAAUCUGCCACAAAGCUUGAGAGCAUCUUCGGAUGCAGAGGCGGCAGCCUUCGGUGGCGCGAUAGCGCCAACGUUCUCAACUAUGACACGCAAAACGCGUGCUCCGUUGAAUGGAGUUUAUCAUG

Variants of: B1
Assay: polymerase ribozyme fitness, log enrichment relative to wild type (log ratio); higher = more active; in vitro selection for triplet polymerase activity
How it was run: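 Mutant libraries of each subunit of a heterodimeric triplet polymerase ribozyme were built by PCR and transcribed. Each library went through one round of in vitro selection in triplicate: annealing with biotinylated primer, partner subunit and triplets, frozen incubation at −7 °C, gel excision of extended constructs, streptavidin-bead capture and RT-PCR. Input and output libraries were Illumina-sequenced; only genotypes with ≥10 input reads and ≥1 read per output were kept. Fitness is log2(genotype enrichment/wild-type enrichment), using inverse-variance-weighted replicate averages.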
With C14G C38U C75G G83U A106U G141A U144G the “polymerase ribozyme fitness (log ratio)” value was no more than -4.2.
For C14G C54G G68C C85U C105A C114A A137U, the “polymerase ribozyme fitness (log ratio)” value was no more than -4.2.
For C14G A19U A30U U31A A39C C54A A73U C99G A121C U139G, the “polymerase ribozyme fitness (log ratio)” value was no more than -4.2.
For C14G G25C U44A G68U G81A U139A G143A U146C, the “polymerase ribozyme fitness (log ratio)” value was no more than -4.2.
With C14G A23C U45A G48C C69U G88A C114A C123A the “polymerase ribozyme fitness (log ratio)” value was no more than -4.2.
For C14G C96A A107C A150C, the “polymerase ribozyme fitness (log ratio)” value was no more than -4.2.
For C14G G62A G81A A91G C95U U109G G133A U146G, the “polymerase ribozyme fitness (log ratio)” value was no more than -4.2.
With C14G A64C A73U U144G the “polymerase ribozyme fitness (log ratio)” value was no more than -4.2.
In the case of C14G C27A C93A A150C, the “polymerase ribozyme fitness (log ratio)” value is reported as no more than -4.2.
With C14G A17G A20U A24U C27U U90C C132U the “polymerase ribozyme fitness (log ratio)” value was no more than -4.2.
With C14G C36U U45A A49G U53G G58C C95U the “polymerase ribozyme fitness (log ratio)” value was no more than -4.2.
For C14G C75U, the “polymerase ribozyme fitness (log ratio)” value was -2.58.
For C14G G59A A73U C87G, the “polymerase ribozyme fitness (log ratio)” value was no more than -4.2.
With C14G A29G U33C A37U U111G G124U U134A the “polymerase ribozyme fitness (log ratio)” value was no more than -4.2.
With C14G C18U U144C the “polymerase ribozyme fitness (log ratio)” value was -2.22.
In the case of C14G A16G A21C A37C A41G C63G G152A, the “polymerase ribozyme fitness (log ratio)” value is reported as no more than -4.2.
With C14G A40C C57G the “polymerase ribozyme fitness (log ratio)” value was -2.31.
With C14G C35A G42C A66G C96G G117U the “polymerase ribozyme fitness (log ratio)” value was no more than -4.2.
For C14G A29U A73G G86U C116A U135C, the “polymerase ribozyme fitness (log ratio)” value was no more than -4.2.
For C14G A26U C43G A60U A64G U77A G88C C116G, the “polymerase ribozyme fitness (log ratio)” value was no more than -4.2.
In the case of C14G A30U U61A G92A C99A, the “polymerase ribozyme fitness (log ratio)” value is reported as no more than -4.2.
In the case of C14G C35U G42C A52U C75A C79G G92C C118U G140C, the “polymerase ribozyme fitness (log ratio)” value is reported as -4.09.
For C14G A26U U31G G50C G65A A122G, the “polymerase ribozyme fitness (log ratio)” value was no more than -4.2.
In the case of C14G G65U G67U G133A U135A, the “polymerase ribozyme fitness (log ratio)” value is reported as no more than -4.2.
With C14G C27G U55G G68A U82A G94C A107U A142G the “polymerase ribozyme fitness (log ratio)” value was no more than -4.2.
In the case of C14G A91G, the “polymerase ribozyme fitness (log ratio)” value is reported as no more than -4.2.
With C14G A91U the “polymerase ribozyme fitness (log ratio)” value was no more than -4.2.
In the case of C14G A17G C27U C96G A122G G141C, the “polymerase ribozyme fitness (log ratio)” value is reported as no more than -4.2.
For C14G A29G G86A, the “polymerase ribozyme fitness (log ratio)” value was no more than -4.2.
In the case of C14G A19G G42C U44G G59C C87A, the “polymerase ribozyme fitness (log ratio)” value is reported as no more than -4.2.
For C14G C79U G94C U101G C118A G141A A150U, the “polymerase ribozyme fitness (log ratio)” value was no more than -4.2.
In the case of C14G A49C U78G G84A C96U C125U, the “polymerase ribozyme fitness (log ratio)” value is reported as no more than -4.2.
For C14G A30C A49C A52G C96G A98U, the “polymerase ribozyme fitness (log ratio)” value was no more than -4.2.
With C14G C87A U146G the “polymerase ribozyme fitness (log ratio)” value was no more than -4.2.
With C14G G42U C87G the “polymerase ribozyme fitness (log ratio)” value was no more than -4.2.
In the case of C14G A23U U31G U33C U45A G46U C57A G70C G94A A97C, the “polymerase ribozyme fitness (log ratio)” value is reported as no more than -4.2.
For C14G C69A G70A A138C, the “polymerase ribozyme fitness (log ratio)” value was no more than -4.2.
For C14G A20C C54U C85G G86U U135G U144A, the “polymerase ribozyme fitness (log ratio)” value was no more than -4.2.
With C14G A28G A52C C93A C108A the “polymerase ribozyme fitness (log ratio)” value was no more than -4.2.
For C14G A21U A40C U44A G67A C87U A107U, the “polymerase ribozyme fitness (log ratio)” value was no more than -4.2.
For C14G A24C C35U C57A G84U A97U, the “polymerase ribozyme fitness (log ratio)” value was no more than -4.2.
For C14G A20U U55A C85A C105U U134A, the “polymerase ribozyme fitness (log ratio)” value was no more than -4.2.
In the case of C14G C51U G92A G112C, the “polymerase ribozyme fitness (log ratio)” value is reported as no more than -4.2.
For C14G A21C C35A G112U, the “polymerase ribozyme fitness (log ratio)” value was no more than -4.2.
In the case of C14G A22U A39C A97U, the “polymerase ribozyme fitness (log ratio)” value is reported as no more than -4.2.
In the case of C14G A29G A30G G70C C93G G124U, the “polymerase ribozyme fitness (log ratio)” value is reported as no more than -4.2.
With C14G A19C U55G C57A U61C G86A A91G C93G C96U A106U A147U the “polymerase ribozyme fitness (log ratio)” value was no more than -4.2.
In the case of C14G G58U A91U, the “polymerase ribozyme fitness (log ratio)” value is reported as no more than -4.2.
In the case of C14G A39U A49G C54G C75G G83U U148C A150U G152A, the “polymerase ribozyme fitness (log ratio)” value is reported as no more than -4.2.
With C14G A22G A26C C63U C99G G141A the “polymerase ribozyme fitness (log ratio)” value was no more than -4.2.
In the case of C14G A23C A30C C43G C76A G80C A107G A138G, the “polymerase ribozyme fitness (log ratio)” value is reported as no more than -4.2.
In the case of C14G G48C A49G U53A G92U C93U A107U, the “polymerase ribozyme fitness (log ratio)” value is reported as no more than -4.2.
With C14G A16C A23G A30U C43U C85A C99U C114U the “polymerase ribozyme fitness (log ratio)” value was no more than -4.2.
In the case of C14G A40G A73G C85U U139A, the “polymerase ribozyme fitness (log ratio)” value is reported as no more than -4.2.
In the case of C14G A20C G92C C125G, the “polymerase ribozyme fitness (log ratio)” value is reported as -3.88.
With C14G A29U A30G C96U the “polymerase ribozyme fitness (log ratio)” value was no more than -4.2.
In the case of C14G G50C C51U C79U C85A C125A, the “polymerase ribozyme fitness (log ratio)” value is reported as no more than -4.2.
For C14G A23G A52G U56A A91U A150G, the “polymerase ribozyme fitness (log ratio)” value was no more than -4.2.
In the case of C14G C18G C51G C75G A107C G140U, the “polymerase ribozyme fitness (log ratio)” value is reported as no more than -4.2.
In the case of C14G C36U U55G G68U C93G U134A, the “polymerase ribozyme fitness (log ratio)” value is reported as no more than -4.2.
With C14G A26G U56G A73U G143A the “polymerase ribozyme fitness (log ratio)” value was no more than -4.2.
For C14G C93U G140A U144C, the “polymerase ribozyme fitness (log ratio)” value was no more than -4.2.
For C14G G34U C51U G70A C96G, the “polymerase ribozyme fitness (log ratio)” value was no more than -4.2.
With C14G A24U G70C A91C U127G the “polymerase ribozyme fitness (log ratio)” value was no more than -4.2.
For C14G G58C G92U A113U C132U, the “polymerase ribozyme fitness (log ratio)” value was no more than -4.2.
With C14G A16U G68A G80A C93U U104A the “polymerase ribozyme fitness (log ratio)” value was no more than -4.2.
With C14G C85U the “polymerase ribozyme fitness (log ratio)” value was -2.1.
For C14G G58C G81C C93G A107U, the “polymerase ribozyme fitness (log ratio)” value was no more than -4.2.
In the case of C14G G25U A49U G88C C125A, the “polymerase ribozyme fitness (log ratio)” value is reported as no more than -4.2.
In the case of C14G A24U C51A U61G G80C G94A, the “polymerase ribozyme fitness (log ratio)” value is reported as no more than -4.2.
For C14G A23U C35A C69U C93U, the “polymerase ribozyme fitness (log ratio)” value was no more than -4.2.
For C14G C43A U44A G92U A98G A121C, the “polymerase ribozyme fitness (log ratio)” value was no more than -4.2.
In the case of C14G G46C U61A, the “polymerase ribozyme fitness (log ratio)” value is reported as no more than -4.2.
In the case of C14G A40C G48U C131A G133A, the “polymerase ribozyme fitness (log ratio)” value is reported as no more than -4.2.
With C14G C35A A60G U130C U134C the “polymerase ribozyme fitness (log ratio)” value was no more than -4.2.
For C14G G59C C69A A142G, the “polymerase ribozyme fitness (log ratio)” value was no more than -4.2.
With C14G A23U G74U C87U C96A the “polymerase ribozyme fitness (log ratio)” value was no more than -4.2.
For C14G A137U, the “polymerase ribozyme fitness (log ratio)” value was no more than -4.2.
In the case of C14G G42A G58C U61G A64G C93G C99G A106G U145A, the “polymerase ribozyme fitness (log ratio)” value is reported as no more than -4.2.
In the case of C14G A73C G92C C96U C118U G143A A147C U148C, the “polymerase ribozyme fitness (log ratio)” value is reported as no more than -4.2.
In the case of C14G A21C C54A G67A G94U C123U, the “polymerase ribozyme fitness (log ratio)” value is reported as no more than -4.2.
With C14G A37U A64C U111G the “polymerase ribozyme fitness (log ratio)” value was no more than -4.2.
For C14G A39U U55G C95U, the “polymerase ribozyme fitness (log ratio)” value was no more than -4.2.
